# According to PubChem BioAssay AID686979 (National Center for Advancing Translational Sciences (NCATS), 2013):
# In all, about 420,000 compounds went through this assay and about 50,000 (12%) were called active. Inconclusive results, whose numbers are uncertain, are shown with a selection of clear calls. Calls follow the shape of the dose curve; as a rule, active = well fitted inhibition curve with a large enough effect; inconclusive = small, poorly fitted or top-dose-only effect; inactive = flat fitted curve, though single readings scatter. Potencies of inconclusive entries are left out as doubtful fits.
# Assay: qHTS for Inhibitors of human tyrosyl-DNA phosphodiesterase 1 (TDP1): qHTS in cells in presence of CPT; also: nearly all actives have a fitted effect of over 55% in size
# Conditions: chicken DT40 Tdp1-/-;hTDP1 cells + 20 nM CPT, ATP luminescence, 48 h; activity change, negative = growth inhibition: at 46.2 µM (top of the series) unless noted
# Method in brief: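 Cell growth measured by CellTiter-Glo luminescence after a minimum 48 h, 37 C compound exposure with 20 nM CPT in Tdp1-knockout DT40 cells stably expressing hTDP1, seeded 400/well; qHTS titration format.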
# % is scaled to controls: 0 for no effect and ±100 for the full control effect; potency is read from the fitted curve at half-maximal effect; tags tell the direction and shape of the fitted curve.
SMILES,Potency,"activity change, negative = growth inhibition"
COc1cc(OC)c(Cl)cc1N,"inconclusive [inhibitor, single point]",
N#C/C(=C\c1ccc(OCCN2CCOCC2)cc1)C(=O)Nc1ccccc1,inactive,
O=C(c1cc2c(=O)[nH]c3ccccc3c2s1)N1CCN(c2ccc(F)cc2)CC1,"inconclusive [inhibitor, single point]",
O=C1CC(c2ccccc2)CN1C(=O)c1cncc(Br)c1 (stereo unspecified),inactive,
Cc1ccc(S(=O)(=O)CCC(=O)N(CCCN2CCOCC2)c2nc3ccccc3s2)cc1,active: 2.31 µM,
CC(OC(=O)c1ccc2ncsc2c1)C(=O)N(C)C1CCCCC1 (stereo unspecified),"inconclusive [inhibitor, full curve]",
COc1cc(OC)c(C(=O)OCC(=O)Nc2ccc(N3CCOCC3)cc2)cc1OC,"inconclusive [inhibitor, single point]",
Cc1cccc(NC(=O)N2CCCCCC2)c1C,inactive,
CCC(C)NC(=O)Cn1nc(C(F)(F)F)c2c1CCCC2 (stereo unspecified),,inconclusive: -32.1% [inhibitor]
COc1ccc(/C=C(\C#N)C(=O)NCC2CCCO2)cc1OC (stereo unspecified),inactive,
CC(=O)c1ccc(N2CCN(S(=O)(=O)c3ccc4c(c3)CC(=O)N4)CC2)cc1,inactive,
CCN(CC)C(=O)CSc1nc2ccccc2c(=O)n1CC,"inconclusive [inhibitor, full curve, poor fit]",
Cc1nc(SCC(=O)NC2CC2)c2c(C)c(C)sc2n1,"inconclusive [inhibitor, single point]",
FC(F)Sc1ccc(-n2cc(-c3ccccc3)[n+]3c2CCC3)cc1,active: 5.8 µM,
COc1cccc2c1Oc1nc(-c3ccccc3)nc(SCC(=O)N3CCCCC3)c1C2,"inconclusive [inhibitor, single point]",
C[C@@H]1CN([C@@H](C)CO)C(=O)c2cc(NC(=O)C3CCCCC3)ccc2O[C@@H](C)CCCCO[C@H]1CN(C)S(=O)(=O)c1ccc(Cl)cc1,"inconclusive [inhibitor, partial curve, poor fit]",
COc1ccccc1NC(=O)Cn1c(=O)n(Cc2ccccc2)c(=O)c2ccccc21,"inconclusive [inhibitor, single point]",
C=CCOC(=O)N1CCN(c2cccc(C(F)(F)F)c2)CC1,"inconclusive [inhibitor, partial curve, poor fit]",
CCC(C)CCN1C(Nc2ccccc2)=NC[C@@H]1CC(C)C (stereo partly specified),active: 16.4 µM,
Cn1c(=O)c2c(SCC(=O)N3CCN(c4ccccc4)CC3)nc(C3CC3)nc2n(C)c1=O,active: 13 µM,
CN(C)C(=O)CN1C(=O)NC(c2ccccc2)(c2ccccc2)C1=O,inactive,
O=c1[nH]c(-c2ccccc2O)nc2ccccc12,,inactive: 5.04% [at 9.04 µM]
C=CCn1c(SCCOc2ccc(OC)cc2)nnc1C(NC(=O)c1ccc(OC)cc1)C(C)C (stereo unspecified),"inconclusive [inhibitor, single point]",
C[C@H](CO)N1C[C@H](C)[C@@H](CN(C)C(=O)Nc2ccccc2)Oc2c(NS(=O)(=O)c3ccccc3)cccc2C1=O,inactive,

SMILES,Potency,"activity change, negative = growth inhibition"
COC(=O)c1ccc(NC(=O)Nc2nnc(N(C)C3CCCCC3)s2)cc1,"inconclusive [inhibitor, single point]",
CC12CCC3c4ccc(O)cc4CCC3C1CCC2=O (stereo unspecified),inactive,
CCCOc1ccc(Nc2nc(SC)ncc2C(=O)OCC)cc1,"inconclusive [inhibitor, single point]",
S=C(NCc1ccccc1)Nc1cccc2cnccc12,active: 11.6 µM,
CCCc1cc(=O)oc2c(C)c(OCC(=O)Nc3cccnc3)ccc12,inactive,
Cc1cccc(NC(=O)CN(C)C(=O)c2ccc(N3CCCCCC3)c([N+](=O)[O-])c2)c1C,active: 23.1 µM,
CCc1c(C(C)S(=O)(=O)c2ccc(C)cc2)[nH]c(=O)n1-c1ccc(C)cc1 (stereo unspecified),"inconclusive [inhibitor, single point]",
Cc1coc2c(C)c3oc(=O)c(CC(=O)N4CCCCC4)c(C)c3cc12,"inconclusive [inhibitor, single point]",
O=c1[nH]c(Cc2ccc(F)cc2)nc2scc(-c3ccc(F)cc3)c12,active: 13 µM,
COc1cc(CNCCNC(=O)c2nonc2N)ccc1OCc1ccc(Cl)nc1,"inconclusive [inhibitor, single point]",
O=C1C=C(c2ccc(F)c(Cl)c2)C[C@@H](c2ccc(F)cc2)C1,"inconclusive [inhibitor, single point]",
CC1CCN(C(=O)COc2cccc3c2CCN(Cc2ccccc2)C3=O)CC1,inactive,
C=CCC1(C#N)C(=S)NC(C)=C(C(=O)OCC)C1c1ccccc1 (stereo unspecified),"inconclusive [inhibitor, single point]",
CC(C)c1nc(SCC(=O)c2c[nH]c3ccccc23)n[nH]1,"inconclusive [inhibitor, single point]",
Cc1ccc(C(=O)C(C)OC(=O)C2CCN(c3ccc(C(F)(F)F)cn3)CC2)cc1C (stereo unspecified),"inconclusive [inhibitor, single point]",
COC(OC)C12c3ccccc3C(c3ccccc31)C1C(=O)N(c3cccnc3)C(=O)C12 (stereo unspecified),inactive,
Cc1nc2ccccc2n1CSc1ccccc1,inactive,
Cc1nc2nc(C)c(NS(=O)(=O)c3cccs3)c(=O)n2[nH]1,inactive,
CSc1ccccc1OCc1cc(C(=O)NCCC2CCCCO2)no1 (stereo unspecified),"inconclusive [inhibitor, single point]",
COc1ccc(-c2nc3nc(C)cc(Nc4ccc(C(C)=O)cc4)n3n2)cc1,"inconclusive [inhibitor, single point]",
COc1cc(-c2nnc(SCC(=O)/C(C#N)=C(\C)N)o2)cc(OC)c1OC,"inconclusive [inhibitor, single point]",
COC(=O)c1ccc(NC(=O)Cc2coc3cc(C)ccc23)cc1,"inconclusive [inhibitor, partial curve]",
CCCCn1nnnc1C(c1cc2ccccc2o1)N(C)CCc1ccccc1 (stereo unspecified),"inconclusive [inhibitor, single point]",
Cc1cc(C)cc(-n2c(SCC(=O)Nc3nnc(C)s3)nc3c([nH]c4ccccc43)c2=O)c1,"inconclusive [inhibitor, single point]",

SMILES,Potency,"activity change, negative = growth inhibition"
Cc1cc(NC(=O)CS(=O)(=O)c2cn(Cc3ccccc3Cl)c3ccccc23)no1,"inconclusive [inhibitor, single point]",
Cc1ccc(C(=O)NCCc2ccc(F)cc2)s1,"inconclusive [inhibitor, single point]",
Cc1ccc(-c2csc(C(O)c3ccc(F)c(F)c3)n2)cc1C (stereo unspecified),"inconclusive [inhibitor, single point]",
O=C1/C(=C\c2cccc(O)c2O)SC(=S)N1Cc1ccccc1,"inconclusive [inhibitor, single point]",
Cc1ccccc1NC(=O)Nc1nc(CN)cs1,active: 16.4 µM,
O=C(NCC(c1cccs1)N1CCOCC1)c1cc2ccccc2oc1=O (stereo unspecified),"inconclusive [inhibitor, single point]",
COC(=O)CSc1nnc2n1C(C)(C)Cc1ccccc1-2,inactive,
COc1ccccc1-c1ccnc2[nH]n(-c3ccccc3)c(=O)c12,"inconclusive [inhibitor, partial curve]",
CCOc1ccc(CCNC(=O)c2cnc3sc(N4CCOCC4)nn3c2=O)cc1,"inconclusive [inhibitor, partial curve]",
CCCn1c(=N)n(CC(=O)c2ccc(OCC(=O)OC)cc2)c2ccccc21,"inconclusive [inhibitor, single point]",
CCC1CCCCN1C(=O)c1nn(-c2ccc(C)cc2)c(=O)c2c1c1ccccc1n2C (stereo unspecified),inactive,
CCOc1ccc(C2C(=O)N(C3CCCCCC3)CC(=O)N2CCc2ccccc2)cc1OC (stereo unspecified),"inconclusive [inhibitor, single point]",
CC(=O)Nc1ccc(S(=O)(=O)N=S(C)(C)=O)cc1,"inconclusive [inhibitor, single point]",
O=S(=O)(Nc1cc(Cl)ccc1N1CCCCC1)c1cccs1,inactive,
CCOC(=O)[C@H]1[C@H]2COc3ccc(Br)cc3[C@@H]2N2C(=O)N(c3ccc(F)cc3)C(=O)[C@@]12C,active: 18.4 µM,
CN1CCC(NC(=S)Nc2cccc([N+](=O)[O-])c2)CC1,,inconclusive: -32.7% [inhibitor]
O=C(Cn1c(CC(=O)N2CCOCC2)nc2ccccc21)Nc1ccc2c(c1)OC(F)(F)O2,,inconclusive: -33.9% [inhibitor]
Cc1[nH]c2ccccc2c1/C=N/NC(=O)c1cc(-c2ccccc2)n[nH]1,"inconclusive [inhibitor, single point]",
O=C(Nc1cccc(C(F)(F)F)c1)c1csc([C@@H]2O[C@H](CO)[C@H](O)[C@H](O)[C@H]2O)n1,inactive,
O=C(NCCC(=O)N1CCN(c2ccccc2O)CC1)c1ccc(Br)cc1,"inconclusive [inhibitor, single point]",
CC(=O)c1sc(N)c(C(=O)OC(C)C)c1C,inactive,
O=C(NC1CCCC1)N[C@@H]1CC[C@@H](CC(=O)N2CCOCC2)O[C@@H]1CO,inactive,
COc1ccc(Nc2cc(Nc3cc(OC)c(OC)c(OC)c3)ncn2)cc1,active: 18.4 µM,
